Reference: PubChem BioAssay AID651820 (National Center for Advancing Translational Sciences (NCATS), 2012)
Hit rate of the full screen: of about 340,000 compounds, about 12,000 (3.5%) were called active. The inconclusive results got no clear call from the source; some entries with a clear call stand among them for comparison. The call rests on the fitted dose curve; in most records, active means well fitted inhibition curve with a large enough effect; inconclusive means small, poorly fitted or top-dose-only effect, or another doubt; inactive means no such curve, though single readings can be large or run the other way. No potency is given beside an inconclusive call; the fits are too rough.

assay: qHTS Assay for Inhibitors of Hepatitis C Virus (HCV); settings: Huh7.5.1 HCVcc-Cre (HCVcc is cell-culture hepatitis C virus) infection, luciferase reporter, 44 h; activity change, negative = inhibition: at 41.8 µM (top of the series) unless noted
How it was run: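 Seed cells (1,000/well) for 4 h; treat with compound and infect with HCVcc-Cre, moi about 0.5. Incubate 44 h, then detect luciferase activity.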
On the % scale 0 is the no-effect control and ±100 the full control effect; potency means the concentration at half of the fitted maximal effect; tags describe the fitted curve by direction and shape.

Structure (SMILES)	Potency	activity change, negative = inhibition
CN(C)CCNC(=O)c1cc2c(s1)-c1ccc(Cl)cc1SC2	active: 11.2 µM	–
CC(=O)Nc1ccc(S(=O)(=O)N2CCc3c(Cl)cccc3C2)cc1	inconclusive [inhibitor, single point]	–
O=c1[nH]c(C2CCN(S(=O)(=O)/C=C/c3ccccc3)CC2)nc2c1nnn2Cc1ccccc1	inactive	–
Cc1cc(NC(=O)CSc2nnc(-c3cccc(F)c3)n2N)no1	inactive	–
Cc1nn(-c2ccccc2)c2sc(C(=O)NC3CCCCC3)cc12	active: 2.51 µM	–
CC(C)N(C(=O)Cn1c(SCC(=O)NCc2ccc3c(c2)OCO3)nc2ccccc21)C(C)C	inconclusive [inhibitor, single point]	–
CN(C(=O)CSc1nc2ccc(Br)cc2c(=O)n1Cc1ccco1)C1CCS(=O)(=O)C1 (stereo not drawn)	inconclusive [inhibitor, partial curve, poor fit]	–
CCn1cc(CNC(=S)Nc2cccc3ccccc23)cn1	inconclusive [inhibitor, single point]	–
COc1ccc(N2CCN(C(=O)COC(=O)c3c(-c4ccccc4)noc3C)CC2)cc1	inconclusive [inhibitor, partial curve]	–
Cc1cc(OCc2cn(CC(=O)c3ccc(O)cc3)nn2)ccc1[N+](=O)[O-]	inconclusive [inhibitor, full curve]	–
CC(=O)Nc1cccc(-c2cc(-c3c(Cl)cccc3Cl)no2)c1	inconclusive [inhibitor, partial curve]	–
COc1cccc(-n2nnnc2SCC(=O)N2CCCc3ccccc32)c1	inconclusive [inhibitor, single point]	–
COc1ccc2[nH]c3c(c2c1)CCN1C(=O)C(CC(=O)NCC24CC5CC(CC(C5)C2)C4)C[C@H](C(=O)N2CCOCC2)[C@@]31CCC1CCCC1 (stereo partly drawn)	inconclusive [inhibitor, partial curve]	–
CCOC(=O)c1cn2nc(Oc3ccc(OC)cc3)ccc2n1	inactive	–
CCOC(=O)C1=C(C)N(CC(C)C)C(=O)/C1=C\c1cccs1	inconclusive [inhibitor, partial curve]	–
CO/N=C(\CCC(=O)O)c1cccs1	inactive	–
Cc1ccc(-c2nc3ccc(NS(=O)(=O)c4ccccc4)cc3[nH]2)o1	inactive	–
O=C(Nc1ccncc1)C1(c2ccccc2)CCCC1	inactive	–
CN1CCN(C(CNC(=O)C(=O)Nc2ccc3c(c2)OCCO3)c2ccc(F)cc2)CC1 (stereo not drawn)	inconclusive [inhibitor, partial curve]	–
CCOc1cccc2sc(N(CCCN(C)C)C(=O)c3ccc(S(=O)(=O)N4CCc5ccccc5C4)cc3)nc12	inactive	–
Cc1cccc(-n2c(N)cc(=O)nc2SCC(=O)Nc2ccccc2)c1	inactive	–
COc1ccc2oc(C(=O)NC3(C)CCS(=O)(=O)C3)c(C)c2c1 (stereo not drawn)	inconclusive [inhibitor, single point]	–
Cc1nc(N2CCN(c3ccccn3)CC2)c2c(C)c(C(=O)N3CCN(c4ccc(F)cc4)CC3)sc2n1	inconclusive [inhibitor, full curve]	–

Structure (SMILES)	Potency	activity change, negative = inhibition
COC(=O)c1ccccc1NC(=O)CN1CCCCC1	inactive	–
O=C(NCCC1CCCCN1S(=O)(=O)c1cccs1)C(=O)Nc1ccc(F)cc1F (stereo not drawn)	inconclusive [inhibitor, partial curve]	–
CC(C)=CCC/C(C)=C/CNC(=O)C[C@H]1C[C@H](C(=O)N2CCOCC2)[C@@]2(C)c3[nH]c4cc(CCC(=O)N(C)C)ccc4c3CCN2C1=O	inconclusive [inhibitor, single point]	–
CC1(C)NC(=O)N(CCCCOc2ccc3c(c2)CCC3)C1=O	inconclusive [inhibitor, single point]	–
CCc1nc2oc3ccccc3c(=O)c2cc1C(=O)OC	inconclusive [inhibitor, single point]	–
CC(=NO)C1CCC2C3CCC4=CC(=NO)CCC4(C)C3C(O)CC12C (stereo not drawn)	inconclusive [inhibitor, single point]	–
Cc1ccccc1NC(=O)C1C2CCC(O2)C1C(=O)O (stereo not drawn)	inactive	–
CCOc1ccc(N2C(=O)c3cccnc3C2Nc2ccc(C)c(C)c2)cc1 (stereo not drawn)	inactive	–
O=C(COc1ccc(Cl)cc1)Nc1ccccc1C(=O)NCc1ccco1	inconclusive [inhibitor, single point]	–
O=C(Nc1cccc(S(=O)(=O)N2CCCC2)c1)c1ccc2c(=O)n3c(nc2c1)CCCCC3	active: 2.82 µM	–
Cc1ccc(Nc2ncc(C(=O)NCCCN3CCN(C)CC3)c3ccccc23)cc1Cl	active: 10 µM	–
CCSc1nc(COC(=O)NC)c(COC(=O)NC)n1C	inactive	–
C=C(C)c1cccc(C(C)(C)NC(=O)NCc2ccc(OC)c(OC)c2)c1	active: 11.2 µM	–
CC1(c2ccccc2)CC(C)(C)n2c(O)c(C3=NC(=S)NC3=O)c3cccc1c32 (stereo not drawn)	inconclusive [inhibitor, single point]	–
COc1ccc(-n2cc(CNCCCn3ccnc3)c(-c3ccccc3Cl)n2)cc1	inconclusive [inhibitor, single point]	–
C[C@@H](C(=O)NCCc1ccccc1)N1C(=O)N2CCc3c([nH]c4ccccc34)[C@@]2(C)C1=O	active: 11.2 µM	–
CCc1cccc2c(C(=O)COC(=O)/C=C/c3ccc(O)c(OC)c3)c[nH]c12	inconclusive [inhibitor, partial curve]	–
O=C(NC(=S)Nc1ccccn1)c1ccc(-c2ccccc2)cc1	inconclusive [inhibitor, partial curve]	–
Brc1ccc(Oc2ncc(CN3CCN(c4ccccc4)CC3)s2)cc1	inactive	–
CN(/N=C\c1ccc(O)c(O)c1)c1nc(-c2ccccc2)cc(-c2ccccc2)n1	active: 11.2 µM	–
Cc1ccc(S(=O)(=O)N2CCCN(S(=O)(=O)c3ccc4ccccc4c3)CC2)cc1	inconclusive [inhibitor, single point]	–
CC(C)(O)CC[C@H](OC(=O)c1ccccc1)[C@](C)(O)[C@H]1CC[C@@]2(O)C3=CC(=O)[C@@H]4C[C@@H](O)[C@H](O)C[C@]4(C)C3CC[C@]12C (stereo partly drawn)	inactive	–
Cc1c(C(=O)OCCOc2ccccc2)[nH]c2c1C(=O)CCC2	active: 12.6 µM	–

Structure (SMILES)	Potency	activity change, negative = inhibition
COc1ccc(C(=O)Nc2sc(C)c(C)c2CN2CCOCC2)cc1	inconclusive [inhibitor, full curve, poor fit]	–
COc1ccc(/C=N/NC2=NS(=O)(=O)c3ccccc32)cc1OC(C)=O	inactive	–
COc1ccc(C(CNC(=O)c2cc(S(=O)(=O)N3CCN(c4ccccc4)CC3)ccc2Cl)N(C)C)cc1 (stereo not drawn)	active: 15.8 µM	–
Cc1nccc2c1[nH]c1ccccc12	inconclusive [inhibitor, single point]	–
O=C(CN(C(=O)c1cc2c(s1)CCC2)C1CCCC1)NCc1cccs1	inconclusive [inhibitor, single point]	–
COc1ccc(NC(=O)CSc2ccc(-c3sc(C)nc3C)nn2)cc1	inconclusive [inhibitor, partial curve]	–
CCC(CO)Nc1nc(CN2CCCCC2)nc2scc(-c3ccccc3)c12 (stereo not drawn)	inconclusive [inhibitor, single point]	–
CCOc1ccccc1NC(=O)C1CCCN(S(=O)(=O)c2ccc(OC)c(C)c2)C1 (stereo not drawn)	inconclusive [inhibitor, single point]	–
CC(Oc1ccc(-c2ccccc2)c(F)c1)c1ccn(S(=O)(=O)c2ccc(Br)cc2)n1 (stereo not drawn)	inconclusive [inhibitor, single point]	–
CC(NC(=O)C12CC3CC(CC(C3)C1)C2)C(=O)NN=Cc1ccc([N+](=O)[O-])o1 (stereo not drawn)	inconclusive [inhibitor, single point]	–
COc1ccc(NC(=O)CCN2CCN(S(=O)(=O)c3ccc(C(C)C)cc3)CC2)cc1	inconclusive [inhibitor, single point]	–
CCCc1nc2c(s1)CCc1onc(-c3ccc(Cl)cc3)c1-2	inconclusive [inhibitor, partial curve]	–
CC1CCC(NC(=O)c2ccc(COc3ccccc3)o2)CC1 (stereo not drawn)	–	inconclusive: -70.9% [inhibitor]
COc1ccc(-c2nc3ccccc3nc2-c2ccccc2)cc1	inactive	–
Nc1ncnc2c1c(-c1ccc(Oc3ccccc3)cc1)cn2C1CCCC1	inconclusive [inhibitor, single point]	–
CCCCOc1ccc(C(=O)OC(C)CN(C)C)cc1 (stereo not drawn)	inconclusive [inhibitor, partial curve]	–
Cc1cc(Oc2ccccc2F)nc(NCc2ccccc2)n1	inconclusive [inhibitor, single point]	–
CSc1ccccc1NC(=O)CN1CCN(S(=O)(=O)c2ccccc2[N+](=O)[O-])CC1	inconclusive [inhibitor, single point]	–
COc1ccc(-c2ccc(=O)n(Cc3c(F)cccc3Cl)n2)cc1	inconclusive [inhibitor, partial curve]	–
CC(C)Oc1ccc(CCc2n[nH]c(=S)n2Cc2ccccc2)cc1	inconclusive [inhibitor, single point]	–
CCCCn1c(N)c(N(CCOC)C(=O)CSc2nnc(-c3ccncc3)n2CCC)c(=O)[nH]c1=O	–	inconclusive: -78.5% [inhibitor]
O=C(Cn1cnc2ccccc2c1=O)NCc1cccs1	inactive	–
